Assay results: the supplement of paper PMC10126150
Sequences with one replicate were seen in a single cluster, so their values are uncertain.

Tested on: ATP
Test: switch fluorescence ratio, 500 uM ATP over buffer (Cy3 cluster intensity, sum of 5 cycles each) (fold (ratio)); higher = stronger signal-on switching upon ATP binding; sequences stand for … in TCGTCGGCAGCGTCAGATGTGTATAAGAGACAGTTTTTTTTTTTTTTTTTTTTTTTTT…TC
Details: aptamer strand: ATP DNA aptamer (quencher-CACCTGGGGGAGTATTGCGGAGGAAGG + anchor), 100 nM annealed; ATP concentration: 500 uM; one replicate
In short: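 Between each of five buffer/ATP cycles, the flow-cell was stripped with NaOH and re-annealed. Each cycle imaged Cy3-labelled switching-strand clusters, annealed to 100 nM quencher-labelled ATP aptamer on a modified Illumina MiSeq flow-cell, first in selection buffer and then after 15 min with 500 uM ATP at 22 °C. The fluorescence ratio is summed target-cycle over summed buffer-cycle Cy3 intensity per cluster, averaged per switch-domain sequence, with clusters outside 100-1000 RFU excluded.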
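Note: ATP exposure 15 min at 22 °C before imaging.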

| Sequence | switch fluorescence ratio |
| --- | --- |
| GGTCGGGCTC | 0.928 |
| GAGTCTGCAT | 3.12 |
| ATGTATAACT | 0.984 |
| GCAGGGGAAA | 0.952 |
| CCCAGTAATC | 3.74 |
| TTCGATGAG | 1.01 |
| GCCTTGGAGT | 0.989 |
| TGATCGACAA | 1.03 |
| CCATCAGTGG | 1 |
| AAGAGACTCG | 1.08 |
| CTAGTGCCCA | 1.06 |
| GGAGGAATTA | 1.02 |
| ATACGAAGCC | 1.16 |
| TAATTAACGG | 0.966 |
| GCACCGGCTG | 1.01 |
| CACGTAAGTT | 1.13 |
| CGATTATCAC | 0.927 |
| CATTAGAAAG | 0.984 |
| CTCCCTAGCA | 1.6 |
| AGGTATTAG | 0.982 |
| GTCACAAGCT | 0.932 |
| TGCCGAAGCT | 1.07 |
| TCGGCAACTC | 1.95 |

| Sequence | switch fluorescence ratio |
| --- | --- |
| GGCGTTATGA | 1.03 |
| GAAGGCCCTA | 1 |
| GACTGACTCT | 1.12 |
| GTGTGCGCA | 1.01 |
| CAATACCCGA | 1.05 |
| CGCCTGGTCG | 0.968 |
| TTGATGGCTT | 0.993 |
| CTCAGGGTCC | 0.987 |
| GTCATCATCC | 0.989 |
| TTACGCCCCG | 1.02 |
| GATGTCCTGA | 0.97 |
| ATAACGGGCG | 1.05 |
| AGTATTCGTG | 1.03 |
| GAAATGCAAA | 0.974 |
| TTTTCGAGTT | 0.966 |
| GTTGTTACGA | 0.971 |
| GGAGGGAAGC | 1.12 |
| CTCCAACTTT | 1.06 |
| GCTTTACTGA | 1 |
| GCCGCTCGGA | 1.05 |
| CCTCATTCAT | 1.13 |
| CTTCATCAAG | 1.09 |
| TATTGCCTT | 1.07 |

| Sequence | switch fluorescence ratio |
| --- | --- |
| ACGAGGTGAG | 0.997 |
| AACCCCGAAG | 1.64 |
| TCTCCATAAT | 1.39 |
| GCGTTCCTGT | 1.02 |
| ACTATGAGGG | 1.01 |
| AGGTGAGGGA | 1.03 |
| CAAGCCGTT | 0.979 |
| GTGGACATGA | 1.03 |
| TTGTAGGCT | 1.06 |
| GGTTACATGA | 1.03 |
| CAATTCGTTT | 0.934 |
| TATTGACCCT | 1.08 |
| TAGGCTGTTG | 1.19 |
| GGCGCCCGTC | 0.994 |
| TTCATTGGGT | 0.999 |
| AATCGGACT | 1.01 |
| TATAAGTGCA | 1.01 |
| TGAAGGCCAT | 1.01 |
| ACAATCCCTA | 0.976 |
| AACCTAGGTC | 1.02 |
| AGAGTCAGAG | 0.983 |
| ATGTTGTTAT | 1.01 |
| GCTAATCTAA | 1.01 |

| Sequence | switch fluorescence ratio |
| --- | --- |
| GACTGGATG | 1.03 |
| TCGGAGCTAA | 5.07 |
| ATGATTTAGT | 0.972 |
| CTTTTAGAAT | 1.03 |
| TCCTTGAACG | 0.999 |
| GGCCTAAA | 0.979 |
| CGGTTCTTAA | 0.968 |
| CGATATTAAT | 0.946 |
| TAGAGCGGAG | 1.04 |
| AGCGTGGGTC | 1.05 |
| AAGGAGCTTT | 0.998 |
| CACTTCAGTT | 0.993 |
| CCAAAGTCGG | 1.11 |
| GTGATGTGGC | 0.99 |
| TCAGCAGTAT | 1.48 |
| TGTTGTTAGC | 1.03 |
| ATTCTGTATC | 0.954 |
| GACGTTGATA | 1.03 |
| AAGATAGGTA | 1.04 |
| GAAGAAACG | 0.98 |
| CAACTGGCGT | 1.03 |
| TGTCGAGCAC | 1.04 |
| CGTGACCGTA | 1.01 |

| Sequence | switch fluorescence ratio |
| --- | --- |
| ATTAGACCC | 1 |
| ATCTTCAAGG | 1.02 |
| GAGCAAATG | 1.13 |
| TTCATACTAC | 1.1 |
| GAACTAAACT | 1.01 |
| TCTTTTGAGT | 0.989 |
| CCAATAGGTG | 2.95 |
| TTTAACACTT | 0.987 |
| GGGTGGTAAC | 0.99 |
| TGAGGCATGG | 0.992 |
| GTCTATGCCT | 1.03 |
| GAAAAAATGA | 0.996 |
| AAACTTACAC | 1.16 |
| CTGTTATTAT | 0.979 |
| AGTGTGGGCC | 1.07 |
| GAGGTTTTAC | 1.01 |
| GAGTCCGACA | 1.66 |
| TAGTGCTTCC | 1.93 |
| GCTCGTGGGA | 1.03 |
| GGTGCGATGT | 1.02 |
| ATAAAATACC | 0.983 |
| AGATAATTTA | 0.976 |
| CAGAAACCCT | 1.11 |

| Sequence | switch fluorescence ratio |
| --- | --- |
| ACGGCCAGGG | 1.32 |
| AAGACTGCGT | 1.01 |
| ACGAAGGTTG | 0.992 |
| GGAAACCCTA | 1.03 |
| GAATACGGGT | 1.02 |
| GGGGAATATC | 1.12 |
| TAGACGCGGT | 1.01 |
| CGGTACTGAG | 1.03 |
| GCGTCACAGC | 1.06 |
| ACTATAATGG | 1.05 |
| AACCCGTCGT | 1 |
| TACATGTGA | 1.03 |
| TGAGAACCTC | 1.02 |
| AGATGAGGCT | 1.01 |
| CTCTGGCTGC | 2.06 |
| AGATATTTAC | 0.975 |
| AATGGCAGT | 0.961 |
| CATACATGTA | 0.993 |
| GTAGGGTCGG | 1.03 |
| GTTACAGTCG | 0.972 |
| GTGGCATGG | 0.99 |
| AGAGGACATT | 1.03 |
| GAGAAGCATG | 1.02 |

| Sequence | switch fluorescence ratio |
| --- | --- |
| GGTTTGAAGG | 1 |
| TATACGGTAG | 1 |
| TGATTCGATT | 1.03 |
| GCGCTCATTA | 1.02 |
| TACTAGGGTG | 1.15 |
| CAGACGGCTT | 1.01 |
| TTATTCCGAT | 1.03 |
| AACTGTTGGC | 1.01 |
| CCCGACCCTT | 1.06 |
| TTATTGACT | 1.05 |
| ATCATCCTT | 1.04 |
| TTCGGCTTTC | 1.04 |
| TGAATGTAAC | 1 |
| TAGAGCGCTC | 0.984 |
| TAGCTCCCGA | 1.07 |
| GAGTTCGGGT | 0.981 |
| CTATCAGCCG | 1.03 |
| TGAGCCACGA | 1.06 |
| TGTTGAGATG | 1 |
